Measured values from PMC4336329 (PLoS ONE, 2015).
Among all 310,000 compounds or so, about 14,000 (4.5%) showed an effect of 50% or more. Effects have a minus sign here. Some of the results follow.

Biological target: human ether-à-go-go-related gene (hERG) potassium channel (human, UniProt Q12809)
Assay: primary screen, population patch clamp on CHO cells stably expressing hERG
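Also: peak tail current of the secondary pulse compared with the same well before compound.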

Chain of human ether-à-go-go-related gene (hERG) potassium channel (Q12809 whole entry, looked up): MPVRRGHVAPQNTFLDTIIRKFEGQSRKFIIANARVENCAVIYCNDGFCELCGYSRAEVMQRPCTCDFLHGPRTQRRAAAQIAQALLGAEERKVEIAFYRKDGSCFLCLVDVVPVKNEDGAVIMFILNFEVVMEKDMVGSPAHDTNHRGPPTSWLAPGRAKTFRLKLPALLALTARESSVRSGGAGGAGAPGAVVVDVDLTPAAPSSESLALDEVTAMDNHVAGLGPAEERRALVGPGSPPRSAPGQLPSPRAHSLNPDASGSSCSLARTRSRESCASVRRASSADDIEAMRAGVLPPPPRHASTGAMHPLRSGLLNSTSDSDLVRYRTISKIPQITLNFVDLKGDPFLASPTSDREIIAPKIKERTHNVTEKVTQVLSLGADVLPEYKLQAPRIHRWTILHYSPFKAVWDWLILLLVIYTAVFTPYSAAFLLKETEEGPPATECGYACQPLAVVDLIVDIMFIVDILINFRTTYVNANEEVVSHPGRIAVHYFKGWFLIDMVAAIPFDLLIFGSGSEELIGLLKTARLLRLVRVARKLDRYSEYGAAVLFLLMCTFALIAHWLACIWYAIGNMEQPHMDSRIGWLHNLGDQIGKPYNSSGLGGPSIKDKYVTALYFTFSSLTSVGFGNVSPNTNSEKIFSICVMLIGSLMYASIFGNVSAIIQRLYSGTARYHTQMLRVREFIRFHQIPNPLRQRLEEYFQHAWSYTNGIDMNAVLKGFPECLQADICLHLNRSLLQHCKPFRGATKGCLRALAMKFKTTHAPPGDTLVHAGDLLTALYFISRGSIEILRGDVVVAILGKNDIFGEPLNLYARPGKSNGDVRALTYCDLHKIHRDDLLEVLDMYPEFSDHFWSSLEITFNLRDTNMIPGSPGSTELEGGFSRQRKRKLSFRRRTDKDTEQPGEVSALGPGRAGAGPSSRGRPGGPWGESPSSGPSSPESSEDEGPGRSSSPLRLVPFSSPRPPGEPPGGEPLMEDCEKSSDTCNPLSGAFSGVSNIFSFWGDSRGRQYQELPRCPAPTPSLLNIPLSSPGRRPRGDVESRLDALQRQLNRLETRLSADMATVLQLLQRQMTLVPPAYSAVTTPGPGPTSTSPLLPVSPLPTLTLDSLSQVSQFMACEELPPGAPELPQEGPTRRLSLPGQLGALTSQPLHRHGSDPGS

Structure (SMILES)	hERG current change (%, negative = inhibition) at 10uM [%]
COC(=O)C1=C(C)Nc2nnnn2C1c1cc(OC)ccc1OC (stereo not drawn)	12.4
CCOC(=O)c1c(C)c(C(=O)NCC2CCCO2)c(C)n1CC (stereo not drawn)	-4.06
O=c1ccc(-c2ccccc2)nn1Cc1ccc(Cl)cc1	2.52
CN(c1ccccc1)c1nc(N)c([N+](=O)[O-])c(N2CCCCCC2)n1	9.37
Cc1cc(C)c(S(=O)(=O)N2CCN(CCO)CC2)c(C)c1	10.9
CCCc1cc(=O)oc2c(C)c(OCC(=O)N3C[C@H]4C[C@@H](C3)c3cccc(=O)n3C4)ccc12	-23.9
CC(C)Cc1cc(C(=O)Nc2c(F)cc(F)cc2Br)no1	-46.2
CC(C)C(=O)Nc1sc2c(c1C#N)CCCCC2	9.53
CCOC(=O)Cn1ccc(O)c(Cc2ccc(Cl)cc2Cl)c1=O	-3.25
C[C@@H]1C[C@H]2[C@@H]3C[C@H](F)C4=CC(=O)C=C[C@]4(C)[C@@]3(Cl)[C@@H](O)C[C@]2(C)[C@H]1C(=O)COC(=O)C(C)(C)C	16.9
COc1ccc(NC(=O)COc2ccccc2Cc2ccccc2)cn1	2.75
COc1ccc(NC(=O)/C(C#N)=C/c2ccc[nH]2)c(OC)c1	4.02
COc1ccc(/C=C2\CCCc3c2nc2ccc(C)cc2c3C(=O)O)cc1O	19.6
CCc1nn(CC(=O)NCCCN2CCN(C)CC2)c(=O)c2cc3occc3n12	7.67
O=C1C2CC=CCC2C(=O)N1c1ccc(NCCc2ccccc2)c([N+](=O)[O-])c1 (stereo not drawn)	23.8
Cc1c(C(=O)Nc2ccc(-c3nnc4n3CCCCC4)cc2)oc2ccc(Br)cc12	1.78
COc1ccc(N2CC(C(=O)N3CCC4(CC3)CC(=O)c3ccccc3O4)CC2=O)cc1 (stereo not drawn)	-78.1
O=S(=O)(Nc1ccc(-c2ccc3nncn3n2)cc1)c1ccc(Cl)s1	-19.2
O=C(O)CCN=C1CCCc2ccccc2N1	7.26
COc1cc(C)nc(-c2csc(C)n2)n1	8.2
CC(Cc1ccccc1)N1C(=O)c2cccc([N+](=O)[O-])c2C1=O (stereo not drawn)	4.75
C=CCN(CC=C)CC(=O)Nc1cccc(Oc2cnccn2)c1	10.6
COc1ccccc1C(=O)NC(=O)COC(=O)C1(C)CC1(Cl)Cl (stereo not drawn)	4.86

Structure (SMILES)	hERG current change (%, negative = inhibition) at 10uM [%]
OCc1ccnc2c(O)cccc12	10.2
COC(=O)c1[nH]c2ccc(Br)cc2c1NC(=O)CN1CCCc2ccccc21	-4.4
CSCC(=O)N1CCC(CCC(=O)NC2CC2)CC1	21.5
CCOC(=O)c1c(-c2ccccc2)csc1NC(=O)COc1ccc2c(C)cc(=O)oc2c1	15.7
O=C(Nc1ccccc1)N1CCCC1	-0.806
COC(=O)CCC(=O)N(CCN(Cc1ccccc1)C(=O)CCC(=O)OC)Cc1ccccc1	-13.5
CCOC(=O)C1=C(N)n2c(s/c(=C\c3cccnc3)c2=O)=C(C(=O)OC)C1c1cccnc1 (stereo not drawn)	-10.3
CC(=O)c1cccc(NC(=S)NC(=O)c2ccccc2Br)c1	10.9
Cc1cc(NC(=O)COC(=O)C(C)Oc2ccc(Cl)cc2Cl)no1 (stereo not drawn)	12.2
CCS(=O)(=O)c1ccc2oc(Nc3ccc(OC)c(OC)c3)nc2c1	8.05
O=C(NCc1ccccn1)c1c(Cl)cccc1Cl	2.78
COc1ccc(OC)c(-c2cc(C(=O)N3CCc4ccccc4C3)no2)c1	11.3
CC(NCc1ccc(S(N)(=O)=O)cc1)C(=O)N1CCc2ccccc21 (stereo not drawn)	5.05
Cc1ccc2[nH]c3c(N4CCOCC4)ncnc3c2c1	-0.757
Cc1cc(C(=O)NCc2ccc(F)cc2)n(-c2ccccc2)n1	-3.69
C/C(=N/O)c1cc(C(C)(C)C)c(O)c(C(C)(C)C)c1	14.6
COc1ccc(S(=O)(=O)c2c(O)c3ccc(C(=O)Nc4ccccc4F)cc3[nH]c2=O)cc1	-0.579
OCCN1CCN(C(=S)NCCc2ccccc2)CC1	16.3
O=C1C=C(NCCN2CCOCC2)CC(c2ccccc2)C1 (stereo not drawn)	-6.99
Cc1ccc(C(=O)Nc2nnc(CC(=O)N/N=C/c3ccc(O)c(O)c3)s2)cc1	26
CC(=O)N1CN(C2CCS(=O)(=O)C2)Cc2c1sc1c2CCCC1 (stereo not drawn)	6.57
O=C1C=C(c2ccc(Cl)cc2)OC2(CCCC2)O1	-26.2
COC(=O)C1=C(c2cccc(OC)c2OC)C[C@@H]2CC[C@H]1N2C(=O)NCC1CC1	0.266

Structure (SMILES)	hERG current change (%, negative = inhibition) at 10uM [%]
CCCCCCOc1ccc(N2C(=O)CC(N3CCN(CCN=CC4=C(O)CC(C)(C)CC4=O)CC3)C2=O)cc1 (stereo not drawn)	-33.1
COc1ccc(Nc2nc3ccccc3c(=O)[nH]2)cc1	-0.539
COc1ccc2c(c1)CC/C2=N\OC(=O)c1cccc(C)c1	5.29
CC(=O)c1c(C)[nH]c(C(=O)N2CCN(c3cc(Cl)ccc3C)CC2)c1C	19
O=C(COC(=O)CNC(=O)c1ccc(Cl)cc1Cl)NC(=O)NCc1ccccc1	13.8
COc1ccc(OC)c(S(=O)(=O)N2CCC(C(=O)Nc3cccc(C)c3C)CC2)c1	10
Cc1cccc(-c2n[nH]c(S(C)(=O)=O)c2C#N)c1	-0.0424
C/C(=N\Nc1nc2ccccc2nc1C)c1ccccc1O	3.61
CSc1nc(NCc2ccco2)c2ccccc2n1	2.5
CCC1CCCCN1CC(=O)c1c(C)[nH]c2ccc(OC)cc12 (stereo not drawn)	-20.6
C=CCNC(=O)c1cc2cccc(OC)c2oc1=O	34.2
CCOC(=O)c1sc(Nc2ccc(F)cc2)nc1C	14.7
CCOC(=O)CC(=O)CSc1nc2c(sc(=S)n2-c2ccc(C)c(C)c2)c(=O)[nH]1	-10.7
Cc1c(C(=O)N(C)C(C)c2ccncn2)oc2c(F)cccc12 (stereo not drawn)	-0.356
O=C(Nc1ccc(S(=O)(=O)Nc2nccs2)cc1)C1=NN(c2ccccc2)C(=O)CC1	17.8
Cc1ccc(Cl)cc1N(C)C(=O)Cn1ncc2c([nH]c3ccccc32)c1=O	18.4
Cc1ccc2nc(Cl)c(C3CC(c4cccs4)=NN3C(=O)CCC(=O)O)cc2c1 (stereo not drawn)	20.9
COc1ccccc1N1CCN(/N=C/C(Cl)=C/c2ccccc2)CC1	25.5
Cc1ccc(NC(=S)c2nc3ccccc3s2)cc1	12.1
COC(CN(C)C(C(=O)NC1CCCCC1)c1ccccc1)OC (stereo not drawn)	-7.49
CCCCN1CCc2[nH]c(=S)[nH]c(=O)c2C1	2.25
NNC(=O)C1CCN(S(=O)(=O)c2ccc(Cl)cc2)CC1	12.9
COc1ccc(/C=C/C(=O)c2oc3ccc(F)cc3c2C)cc1	6.1

Structure (SMILES)	hERG current change (%, negative = inhibition) at 10uM [%]
O=C(CCc1nnc2ccc(N3CCCC3)nn12)Nc1cc(F)ccc1F	-50.4
Cc1nc(Cl)sc1C(=O)Nc1cccc(Cl)c1	12.6
COc1ccc(C2SCCN2S(=O)(=O)c2ccccc2)cc1 (stereo not drawn)	-4.42
CCOC(=O)C1CN(C(C)(C)C)C(=O)C1=O (stereo not drawn)	16
COc1ccc(O)c(-c2[nH]ncc2C(=O)c2ccccc2)c1	12.8
O=C(CN1C(=O)COc2ccccc21)NCCCN1CCN(Cc2ccccc2)CC1	-11.7
CC(=O)N(Cc1cccs1)Cc1cc2ccc(C)c(C)c2nc1Cl	19.5
Cc1cn(C2OC(COC(=O)c3ccccc3)C(O)C2Cl)c(=O)[nH]c1=O (stereo not drawn)	-0.723
CC1(C)CC(=O)C2=C(C1)NC(=O)CC2c1cccc(F)c1 (stereo not drawn)	-4
O=C(Nc1cc(Cl)ccc1Oc1ccccc1)c1cnccn1	15.5
C[C@]12C=CC(=O)C=C1CC[C@@H]1C2[C@@H](O)C[C@@]2(C)C1CC[C@]2(O)C(=O)COC(=O)CCC(=O)O (stereo partly drawn)	2.52
Nc1nc(CSCCO)nc(Nc2ccc(F)cc2)n1	16.1
CCN1C(=O)c2cccc3c(S(=O)(=O)N4CCC(C)CC4)ccc1c23	-16.8
CC(=O)Nc1ccc(NC(=O)CSc2nnc(C)c(=O)n2N)cc1	0.297
O=C1C2ON(c3ccccc3)C(c3ccccc3F)C2C(=O)N1c1ccccc1 (stereo not drawn)	-5.85
CCc1nc(SCc2cccnc2)c(C#N)cc1C	-20
Cc1onc(-c2c(F)cccc2Cl)c1C(=O)N1CCc2ccccc21	-23.1
Cc1ccc(NS(=O)(=O)c2ccc3c(c2)NC(=O)CCS3)cc1F	7.64
CC(Cc1cccnc1)NC(=O)c1cc(COc2c(F)cccc2F)on1 (stereo not drawn)	-0.167
CS(=O)(=O)N1CCc2cc(C(=O)Nc3ccccc3Cl)ccc21	-6.05
S=C(c1ccc(-c2ccccc2)cc1)N1CCOCC1	6.09
